Conditions: rat plasma, 37° C., 24 h, 1 mM, MALDI-TOFMS and LC-QTOFMS
Description: The ester bonds could be hydrolyzed by endogenous esterases in the blood, liver and kidney.
Sprague Dawley® rat plasma (550 μL) and 50 μL of analyte were mixed to yield a final concentration of 1 mM. The mixture was incubated at 37° C. for 24 h, extracted with methanol (3.6 mL) by vortex mixing at 4° C. for 2H, and then subjected to centrifugation at 10,000 rpm for 20 min. The precipitate was removed by filtration. The filtrate was concentrated under reduced pressure, and the content of enzymatic cleavage products was analyzed by MALDI-TOFMS.
Alternatively, the mixture resulted from incubation was subjected to LC-QTOF MS analysis. The sample was loaded onto a Sep-Pak® Plus tC18 cartridge (Waters Corp), and flushed with deionized water (2×2 mL) to remove excess salts and proteins, followed by elution with MeOH/H2O (1:1, 4×2 mL) to collect analyte. The analyte was evaporated to dryness, and re-dissolved in CH3CN/H2O (1:9, 100 μL) for LC-QTOF MS analysis on a nano Acquity UPLC BEH C18 column (1.7 μm, 75 μm×250 mm, Waters Corp). The injection volume was 2-5 μL and the total run time was 50 min. A mixture of 0.1% formic acid in water (mobile phase A) and 0.1% formic acid in acetonitrile (mobile phase B) was used with a gradient program at a flow rate of 0.3 μL/min at ambient temperature.

Structure (SMILES) | stability / enzymatic cleavage in plasma
CC(=O)NC1C(NC(=N)N)C=C(C(=O)OCCCOC(=O)C=Cc2ccc(O)c(O)c2)OC1C(O)C(O)CO (stereo not drawn) [ZA-1-CA (9)] | cleaved by plasma esterases
CC(=O)NC1C(N=C(N)N)C=C(C(=O)OCCCOC(=O)c2ccc3ccccc3c2O)OC1C(O)C(O)CO (stereo not drawn) [ZA-1-HNAP (12)] | gave the expected degradative products
CC(=O)NC1C(NC(=N)N)C=C(C(=O)O)OC1C(OC(=O)NCCCNC(=O)C=Cc1ccc(O)c(O)c1)C(O)CO (stereo not drawn) [ZA-7-CA-amide (7)] | relatively stable in plasma

Source: patent US10130714B2 (priority 2012, dated 2018)
